Experiments:
[1] = tested on: diabetic nude mice transplanted with human islets; test: Marginal mass transplant of human islets in STZ diabetic nude mice; type: in vivo; conditions: 0.5 mg/kg daily IP
Experimental: The effects of GLP-1 MMB on the efficacy of a marginal mass transplant of human islets in diabetic immunocompromised mice. Athymic nu/nu (nude) mice were purchased from Harlan Laboratories. Animals were housed in Virus Antibody Free rooms in micro-isolated cages with free access to sterilized food and water. All experiments were conducted in accordance with the standards set forth in the Guide for the Care and Use of Laboratory Animals.
Diabetes was induced by intravenous administration of streptozotocin (200 mg/kg) freshly dissolved in citrate buffer. Induction of diabetes was confirmed by monitoring non-fasting glycemic values after induction and only animals with values ≧350 mg/dL were used as recipients. After transplantation of a marginal islet mass (≈50 IEQ/g body weight), meaning a mass that is not sufficient to immediately render the recipient normoglycemic, the animals were monitored for graft function by measuring non-fasting glycemic values daily in the first week post-transplant, and up to 3 times a week thereafter. Interventions that improve islet engraftment, viability, and function will reduce the time to achieve normoglycemia in animals transplanted with a marginal islet mass. […]
Animals were considered euglycemic when non-fasting glycemic values were ≧200 mg/dL on at least 2 consecutive readings. […]

[2] = tested on: INS-1E cells; test: Glucose-dependent insulin secretion in INS-1E cells; type: cell-based
Experimental: GLP-1 MMB Increases Glucose-Dependent Insulin Secretion in INS-1E Cells. INS-1E cells were plated in 24-well plates at a cell density of 200,000 cells/well in RPMI 1640+10% FBS+1% L-glutamine+1% Sodium Pyruvate+1% Non-essential Amino Acids+50 μM β-Mercaptoethanol media. The cells were allowed to grow for 7 days at 37° C. and 5% CO2 and were fed on day 3 or 4. The cells were washed twice with 0.4 ml of KRBH buffer/3 mM glucose and allowed to incubate in this buffer for 30-60 minutes. The media was removed from the cells and 0.4 ml of test article in KRBH with the appropriate amount of glucose was added per well. Twenty microliters of supernatant was removed per well for the T=0 time point and following incubation for 60 minutes at 37° C. at 5% CO2 for insulin measurements. Insulin concentrations were determined using a rat standard curve (12.8-0.1 ng/ml) with the Ultra Sensitive Rat Insulin ELISA kit (Crystal Chem). Five microliters of a 1:50 dilution of the time point supernatants were used in the assay in order to obtain values that fell on the standard curve. ELISA plates were read at OD450 subtracting the OD630 on a Molecular Devices SpectraMax 340PC plate reader.

[3] = tested on: db/db mice; test: Insulin staining of pancreas in db/db mice after single dose; type: in vivo; conditions: single 1.5 mg/kg s.c.
Experimental: GLP-1 MMB Protects Decline of Diabetic Mouse β-cells. Mice (12 week old db/db) were fasted overnight. On day 1 of the study, mice (4 groups; n=5/group) were dosed s.c. with GLP-1 MMB (1.5 mg/kg) or a negative control mimetibody. On day 4 of the study, fasting blood glucose was measured and an OGTT (oral glucose tolerance test) was performed. Blood glucose levels were measured at 15, 30, 60, 90, 120, 150 and 180 min using tail vein blood. Mice were euthanized and pancreata were removed and fixed by immersion in 10% neutral buffered formalin. The pancreas from each mouse was embedded in paraffin and sectioned for staining by H&E and immunohistochemistry. […] The experiment was repeated with the mice sacrificed 14 days after dosing to evaluate the longevity of the single dose of GLP-1 MMB.

[4] = tested on: human islets; test: Glucose-dependent insulin secretion in human islets; type: cell-based; conditions: 50 nM, glucose 3.5 mM or 15 mM, 4 hours
Experimental: (§1) GLP-1 MMB Increases Glucose-Dependent Insulin Secretion in Rat and Human Islets. Rat islets were obtained by collagenase digestion followed by Ficoll gradient purification. Human islets were isolated using an enzymatic digestion and density gradient purification described in detail in Ricordi et al. Diabetes (1998) 37; 4, 413-420. Islets were plated overnight in CMRL-1066 (Gibco), pen/strep (5,000 units/5,000 μg), 10% FBS, 1% L-Glutamine 25 mM HEPES, pH 7.2-7.4 media in a 20×100 mm petri dish, and cultured at 37° C. in 5% CO2 for 18 to 24 hours. The following day, islets were swirled to center of dish and collected into a 50 mL conical tube. The islets were allowed to settle to the bottom of the tube by gravity for approximately 10-15 minutes. The supernatant was removed, Functionality/Viability media (MediaTech, cat#99-786-CV) was added and islets were allowed to settle to the bottom of the tube by gravity. The islets were washed for a total of three times. The supernatant was removed and the islets were resuspended at a density of 20 islets per mL in Functionality/Viability media containing 1% BSA, 1% L-Glutamine, 1% pen/strep and 0.5 mM glucose solution. One mL of cell suspension (˜20 islets) was added to each well of a 24 well plate and incubated for 2 hrs at 37° C. in 5% CO2. […]

[5] = tested on: normal C57BLK/6 mice; test: Blood glucose and body weight of normal C57BLK/6 mice; type: in vivo; conditions: 0.5 mg/kg daily IP for 10 days
Experimental: The effects of GLP-1 MMB on the blood glucose of normal mice. Normal C57BLK/6 mice were randomized into two groups with each group having 13 animals. Group1 received daily intraperitoneal (IP) doses of PBS vehicle or GLP-1 MMB (0.5 mg/kg). Both groups were treated for 10 days. The mice were monitored daily for body weight and blood glucose was monitored (LifeScan, Calif.) for 32 days at which point the study was terminated.

[6] = tested on: nonhuman primate islets; test: Glucose-induced insulin secretion of nonhuman primate islets (dynamic stimulation, perifusion); type: cell-based; conditions: cultured two days with 50 nM; 11-mM glucose stimulation
Experimental: The effects of GLP-1 MMB on the insulin secretion in response to glucose in nonhuman primate islets. Nonhuman primate islets were isolated using an enzymatic digestion and density gradient purification and were divided into two groups and cultured at 37° C. in humidified mixed 95% air/5% CO2 in non-tissue culture treated 175 cm^2 flasks (Corning, Mass.) at a density of ≈20,000 IE. One group of islets was cultured alone and the other group was cultured in MM1 supplemented with 50 nM GLP-1 MMB.
Following two days of culture, the islets were collected and a sample of islets (2 from control and 1 from GLP-1 MMB groups) was subjected to a dynamic stimulation assay to evaluate the effects of glucose concentration on the insulin secretion of the islets. Islets were pre-perifused in a chromatography column (Bio-gel Fine 45-90 nm; Bio-Rad) with a buffer containing 125-mM NaCl, 5.9-mM KCl, 1.28-mM CaCl2, 1.2-mM Mg Cl2, 25-mM HEPES, 0.1% bovine serum albumin and 3-mM glucose for 20 min, at 37° C. Islets were perifused in the same buffer for 10 min and then sequentially exposed to 11-mM and 3-mM glucose. Fractions of the perfusate were collected every 2 min during perfusate with 3-mM glucose, and every minute during stimulation. The concentration of insulin in each fraction was assayed by ELISA.

[7] = tested on: rat islets; test: Glucose-dependent insulin secretion in rat islets; type: cell-based; conditions: 50 nM, glucose 3.5 mM or 15 mM, 4 hours
Experimental: as §1

[8] = tested on: RIN-m cells; test: Cytokine-induced apoptosis in RIN-m cells (Cell Death ELISA); type: cell-based; conditions: serially diluted from 100 nM; TNFα 10 ng/mL or IL-1β 4 ng/mL, 16 hours
Experimental: RIN-m cells were seeded at 50,000 cells/well in 96 well plates and incubated at 37° C. overnight. The following day, cells were treated with a dose range of GLP-1 MMB (serially diluted from 100 nM) for 30 minutes before the addition of the cytokines TNFα (10 ng/mL) or IL-1β (4 ng/mL). The plates were incubated at 37° C. for 16 hours. To assay apoptosis the Cell Death ELISA-Plus assay kit (Roche Applied Science, Cat. No. 11920685001) was used. Media was aspirated from the wells, 200 μL of lysis buffer was added to each well, and the plate was incubated for 30 minutes at room temperature. After incubation, 20 μL of lysate was transferred to a streptavidin coated 96 well microtiter plate. 80 μL of immunoreagent (1:20 dilutions of the anti-histone-biotin and anti-DNA-peroxidase in the incubation buffer provided) was also added to each well. The 100 μL suspension was then incubated at room temperature for 2 hours, shaking gently. After 2 hours, the plates were washed three times with incubation buffer and development solution was added to the plates. Absorbance was read at 405 nm after approximately five minutes.

[9] = tested on: diabetic cynomolgus monkeys transplanted with a marginal islet mass; test: Allogeneic islet marginal mass model in STZ diabetic cynomolgus monkeys; type: in vivo, cynomolgus monkey; conditions: 0.2 mg/kg subcutaneously two times per week
Description: The effects of GLP-1 MMB on allogeneic islet engraftment and long-term survival in a cynomolgus monkey marginal mass model. The use of a non-human primate marginal mass model enables one to study transplant approaches that have the potential to allow for reversal of diabetes with a reduced number of islets. In the marginal mass model, approximately 5,000 IEQ/kg, or half the number (usually 10,000 IEQ/kg) required to achieve normoglycemia, are transplanted. By utilizing islets obtained from the same allogeneic donor one eliminates donor and isolation variables.
Recipients were 2-3 year old cynomolgus monkeys of Mauritian origin; donors of the same strain were >4 years of age. Diabetes was induced with 1250 mg/m^2 streptozotocin. […]
The donor organ was harvested and islets isolated via the semi-automated method referenced in Example A and Example B, followed by 2 overnight culture periods, first at 37° C. and then at 22° C. […] Animals were monitored twice a day to determine fasting and post-prandial blood glucose levels (heel stick, glucometer) and treated with insulin as needed to maintain blood glucose in the 100-200 mg/dl range post-transplant. Fasting c-peptide was determined every other week and intravenous glucose tolerance testing (IVGTT) was done every 8 weeks to assess graft function.

EC50 ([2]; INS-1E cells, 5.5 mM glucose, fit to a Hill equation, read-out: EC50, insulin secreted): 0.07 nM
B1: GLP-1 MMB: GLP-1 mimetibody, abbreviated MMB; construct not specified in Examples 16-23 (protein)
chain: HAEGTFTSDVSSYLEGQAAKEFIAWLVKGRGGGSGGGSGTLVTVSS[human IgG1 Fc not printed]
time to normoglycemia after marginal mass human islet transplant [1]: achieved normoglycemia more rapidly relative to the control mice
insulin secretion in INS-1E cells ([2]; 60 minutes): increased insulin secretion in a dose-dependent manner but only in the presence of elevated glucose
intensity of insulin staining, day 4 ([3]; 12 week old db/db mice): significantly higher intensity of insulin staining
intensity of insulin staining, 14 days after dosing ([3]; db/db mice): higher intensity of insulin staining
insulin secretion from human islets [4]: significantly increases insulin secretion
blood glucose of normal mice [5]: lower blood glucose during the course of the 10-day treatment as compared to the PBS treated mice
body weight gain ([5]; 32 days study): identical body weight gain
glucose stimulated insulin secretion, nonhuman primate islets [6]: significant increase in glucose stimulated insulin secretion
insulin secretion from rat islets [7]: significantly increases insulin secretion
protection from cytokine-induced apoptosis [8]: protect RIN-m cells from apoptosis induced by TNF-α or IL-1α
HgbAlc [9]: rapid reduction in the HgbAlc
exogenous insulin requirements ([9]; islets cultured with 50 nM): significant reduction in exogenous insulin requirements

— patent US20070128193A1, “GLP-1 agonists, compositions, methods and uses” (priority 2004, published 2007)
